The values below come from paper PMC4336329 (PLoS ONE, 2015).

Each structure is given as a SMILES string. Hit rate of the full screen: of about 310,000 compounds, about 14,000 (4.5%) showed an effect of 50% or more. The effect is printed as a negative number. The list shows a part of the results.
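Further: peak tail current of the secondary pulse compared with the same well before compound.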

For the experiment, the target named is human ether-à-go-go-related gene (hERG) potassium channel (human, UniProt Q12809). Put plainly: primary screen, population patch clamp on CHO cells stably expressing hERG.
Chain of human ether-à-go-go-related gene (hERG) potassium channel (Q12809 whole entry, looked up): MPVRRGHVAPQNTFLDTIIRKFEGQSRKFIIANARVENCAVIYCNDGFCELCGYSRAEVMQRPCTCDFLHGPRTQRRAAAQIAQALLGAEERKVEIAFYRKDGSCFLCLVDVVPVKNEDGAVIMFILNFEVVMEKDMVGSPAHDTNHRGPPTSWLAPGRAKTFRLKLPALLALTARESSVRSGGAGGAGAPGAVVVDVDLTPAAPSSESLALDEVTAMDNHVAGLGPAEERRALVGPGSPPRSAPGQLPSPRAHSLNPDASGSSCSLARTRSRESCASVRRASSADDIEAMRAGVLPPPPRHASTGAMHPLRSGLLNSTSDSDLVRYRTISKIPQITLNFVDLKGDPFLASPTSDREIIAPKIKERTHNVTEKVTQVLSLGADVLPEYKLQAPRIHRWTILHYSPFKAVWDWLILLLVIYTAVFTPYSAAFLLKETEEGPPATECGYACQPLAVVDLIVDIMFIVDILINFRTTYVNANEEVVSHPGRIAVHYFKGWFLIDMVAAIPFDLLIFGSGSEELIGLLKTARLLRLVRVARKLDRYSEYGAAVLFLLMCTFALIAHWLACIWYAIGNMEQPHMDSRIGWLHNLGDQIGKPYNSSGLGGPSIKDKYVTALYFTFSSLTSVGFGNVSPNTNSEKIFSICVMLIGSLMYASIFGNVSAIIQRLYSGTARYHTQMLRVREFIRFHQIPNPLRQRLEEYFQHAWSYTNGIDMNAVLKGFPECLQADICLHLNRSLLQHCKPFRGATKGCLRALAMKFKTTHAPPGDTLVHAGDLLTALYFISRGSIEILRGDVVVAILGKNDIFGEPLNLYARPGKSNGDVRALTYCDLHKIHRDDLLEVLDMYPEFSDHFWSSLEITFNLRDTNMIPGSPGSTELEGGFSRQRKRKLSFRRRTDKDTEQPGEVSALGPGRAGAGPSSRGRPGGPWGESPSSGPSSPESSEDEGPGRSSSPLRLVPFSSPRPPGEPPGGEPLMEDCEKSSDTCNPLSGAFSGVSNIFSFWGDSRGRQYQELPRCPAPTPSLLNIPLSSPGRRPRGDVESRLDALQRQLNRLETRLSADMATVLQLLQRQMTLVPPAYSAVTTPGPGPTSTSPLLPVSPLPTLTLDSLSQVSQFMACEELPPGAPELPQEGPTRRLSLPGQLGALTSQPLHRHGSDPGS
`CCOC(=O)C(C(C)C)C(N)Cc1ccc(F)cc1` (stereo not drawn): the “hERG current change (%, negative = inhibition) at 10uM” value is on record as -2.7%.

As to `COc1ccc(CNC(=O)C23CN(Cc4ccccc4)CC2C(c2ccc([N+](=O)[O-])cc2)=NO3)cc1` (stereo not drawn), the “hERG current change (%, negative = inhibition) at 10uM” value is recorded as -40.5%. The same measure for `Cl.O=C(NCC(c1ccc(F)cc1)N1CCOCC1)c1ccc(Br)o1` (stereo not drawn): 3.56%; for `Cc1csc(=N)n1-c1ccc(Cl)cc1`: -3.86%. As for `CN(CC(=O)Nc1ccc(F)cc1)C(=O)COC(=O)c1ccc(-c2ccccc2)cc1`, the figure is 7.52%; as for `Nc1nc(Nc2cccc(F)c2)nc(NCCO)c1[N+](=O)[O-]`, -1.51%; as for `CCC(OC(=O)c1ccco1)C(=O)NCc1ccco1` (stereo not drawn), 9.6%.

On to `O=C(CCSc1ccc(Cl)cc1)c1cccs1`, for which the “hERG current change (%, negative = inhibition) at 10uM” value is given as -2.57%. As for `O=C(Nc1ccc(S(=O)(=O)N2CCc3ccccc3C2)cc1)C1CCCO1` (stereo not drawn), the figure is -3.22%; as for `COC(=O)c1cccc(N(CC(=O)NCC2CCCO2)C(=O)CCC(=O)Nc2cc(C)on2)c1` (stereo not drawn), 23.6%; as for `CCn1c(SCC(O)c2ccccc2)nnc1-c1ccccc1` (stereo not drawn), -15.2%. As for `N#Cc1cc(C(=O)c2ccccc2O)cn(-c2nccs2)c1=O`, the “hERG current change (%, negative = inhibition) at 10uM” value was 35.8%. As for `CCn1c(C)nc2cc(C(=O)NNC(=S)Nc3ccc(F)cc3)ccc21`, the figure is 15.9%; as for `COc1ccc(/C=N/NC(=O)CN2CCCCCCC2)c(C)c1C`, -43.3%. As for `Cn1cc(C(=O)OCC(=O)NC2CCCCC2)c2ccccc21`, the figure is 13.2%. The same measure for `CN(c1ccccc1)S(=O)(=O)c1cccc(C(=O)NCc2ccccc2)c1`: -18.3%; for `CN=C(NC(=O)Nc1c(C)cccc1C)NC(=O)Nc1c(C)cccc1C`: 3.97%.

For `C/C(=N/NC(=O)CN1CCN(S(=O)(=O)c2ccc(Br)cc2)CC1)c1ccncc1`, the “hERG current change (%, negative = inhibition) at 10uM” value was -80.3%. As for `O=C(NC1CCCC1)C(c1ccccn1)N(C(=O)c1csnn1)c1ccccc1F` (stereo not drawn), the figure is -0.0171%; as for `CCOC(=O)/C(=N\Nc1ccc(Cl)cc1)Sc1nnc(-c2ccc(OC)cc2)n1C`, -31.1%. As to `COc1ccccc1CNC(=O)Cn1cnc2ccccc2c1=O`, the “hERG current change (%, negative = inhibition) at 10uM” value is on record as 5.64%.

`O=C1c2ccccc2C(Nc2ccc3c(c2)OCCO3)N1c1ccc(Cl)cn1` (stereo not drawn): the “hERG current change (%, negative = inhibition) at 10uM” value was 3.88%. The same measure for `Cc1ccc(S(=O)(=O)N(C)C)cc1NC(=O)COC(=O)COc1ccc2c(c1)CCC2`: -17.2%; for `Cc1ccc(-c2cc(C(=O)Nc3ccc(S(=O)(=O)Nc4nccs4)cc3)c3ccccc3n2)c(C)c1`: 4.21%; for `O=C(NCCc1ccccc1)C1CCN(C2CCN(C(=O)CC3=CCCCC3)CC2)CC1`: -25%. In the case of `CCc1cc(C(=O)N2CCN(c3ncccn3)CC2)sc1C`, the “hERG current change (%, negative = inhibition) at 10uM” value is on record as -27.5%. As for `CCCCN(C)Cc1c(O)ccc2c(-c3ccccc3)cc(=O)oc12`, the figure is -33.9%. The same measure for `O=C(c1cc2cc(F)ccc2[nH]1)N1CCCC(Nc2ccc(F)cc2)C1` (stereo not drawn): -18.7%; for `O=C(c1cnc(Cl)c(Cl)c1)N1CCC(Cc2ccccc2)CC1`: -17.9%; for `COc1ccc(C2N(S(=O)(=O)c3ccccc3)CCN2S(=O)(=O)c2ccc(C)cc2)cc1` (stereo not drawn): -22.9%.

Consider `Cc1c(C(=O)N(Cc2ccncc2)CC2CCCO2)oc2c(F)cccc12` (stereo not drawn), for which the “hERG current change (%, negative = inhibition) at 10uM” value is -27.1%. The same measure for `CN(CC(=O)Nc1ccc(F)c(F)c1F)C(=O)CCN1C(=O)C2CCCCC2C1=O` (stereo not drawn): -8.97%. The same measure for `Cc1nc2cc(NC(=O)c3ccc(N4C(=O)CCC4=O)cc3)ccc2s1`: 9.81%; for `COC(=O)c1cc(C#N)c(Oc2ccccc2)nc1C`: -22.2%. The same measure for `NC(=O)COc1c(-c2ccc(Br)o2)oc2ccccc2c1=O`: -8.75%; for `C[C@H](NS(=O)(=O)c1ccc(Cl)c(Cl)c1)C(=O)OCc1cc(=O)n2cc(Br)ccc2n1`: -63.4%. Turning to `Cn1c(=O)n(Cc2ccc(F)cc2)c(=O)c2c1nc1n2CCCN1Cc1ccccc1`, the “hERG current change (%, negative = inhibition) at 10uM” value was -16%.

In the case of `CN(C)/C=C1\N=C(c2ccc(Cl)cc2Cl)OC1=O`, the “hERG current change (%, negative = inhibition) at 10uM” value is -6.88%.

`O=C1NC(=O)C(CCc2ccncc2)(CCc2ccccn2)C(=O)N1c1ccc(Br)cc1` (stereo not drawn): the “hERG current change (%, negative = inhibition) at 10uM” value is recorded as -75.6%. The same measure for `Cc1ccc(Nc2c([N+](=O)[O-])ccc3c2=NC2(CCCCC2)N=3)cc1`: -0.425%; for `Cc1ccc(C(=O)NCC(=O)OCC(=O)Nc2cc(S(=O)(=O)N3CCOCC3)ccc2C)cc1`: -6.54%. As for `CCn1cc(C(=O)NCc2cccc(F)c2)c(=O)c2cc(F)c(N3CCN(C(=O)c4ccco4)CC3)cc21`, the figure is -21%. As for `Cc1noc(C)c1COc1cccc(C(=O)Nc2ccc(C#N)cc2)c1`, the figure is -42%; as for `Cc1ccc2[nH]c3c(=O)n(N)c(=O)[nH]c3c2c1`, 2.89%. As for `N#Cc1c(-c2ccco2)cc(C2CC2)nc1N`, the “hERG current change (%, negative = inhibition) at 10uM” value is -9.35%. As for `O=C(CCC1CCCCC1)NCCN1CCOCC1`, the figure is -16.5%; as for `CC(C)(O)C(O)COc1c2ccoc2cc2oc(=O)ccc12` (stereo not drawn), 17%; as for `CC(C)OCCCNC(=O)CN1CCN(Cc2ccc(Cl)cc2)C1=O`, 11.6%. The same measure for `O=C(NCc1cccs1)C1CCN(S(=O)(=O)c2cccc3nsnc23)CC1`: -13.1%; for `O=C(/C(=N\O)n1cncn1)c1ccc(Br)cc1Br`: -13.9%.

For `CCOC(=O)c1cn(Cc2ccc(Br)cc2)nn1`, the “hERG current change (%, negative = inhibition) at 10uM” value is -0.536%. The same measure for `CC(C)OC(=O)c1ccc(NC(=S)NC(=O)c2cncc(Br)c2)cc1`: 16.1%. In the case of `CCOC(=O)C1=C(C)N(C)C(=O)NC1c1cc2c(cc1Br)OCO2` (stereo not drawn), the “hERG current change (%, negative = inhibition) at 10uM” value was -9.08%.

As for `O=S(=O)(c1cccc2cccnc12)N1CCOCC1`, the “hERG current change (%, negative = inhibition) at 10uM” value is 5.96%. The same measure for `Cc1onc(-c2c(F)cccc2Cl)c1C(=O)N(C)CC(=O)Nc1cccc(F)c1`: -1.33%; for `CN(CC(=O)Nc1ccccc1C(F)(F)F)C(=O)COc1ccccc1Cc1ccccc1`: -9.34%.

For the compound `Cc1ccc(C2c3[nH]c4ccccc4c3C[C@H]3C(=O)N(c4ccccc4C(=O)NCCN4CCOCC4)C(=O)N23)cc1` (stereo partly drawn), the “hERG current change (%, negative = inhibition) at 10uM” value is -24.9%. As for `CCOc1ccc(N2C(=O)CN(C)C2=S)cc1`, the figure is 13.4%; as for `COc1ccccc1/C=N\Nc1ccccc1[N+](=O)[O-]`, 21.7%; as for `CCCN(Cc1cc2cc(C)ccc2[nH]c1=O)S(C)(=O)=O`, 21.9%. As for `CCOC(=O)N1CCC(Nc2c(NCCN3CCN(c4ccccc4F)CC3)c(=O)c2=O)CC1`, the figure is 3.81%; as for `CCCN(CCC)C(=O)CC(c1ccccc1)c1ccco1` (stereo not drawn), -10.4%; as for `CC(C)CCc1noc(CN2CCC(CCN3CCCC3=O)CC2)n1`, -3.97%. As for `O=C(CSc1ccc2nnc(CCNC(=O)c3ccccc3)n2n1)NCc1ccccc1`, the figure is -8.24%. On to `CC(Oc1cccnc1[N+](=O)[O-])C(=O)Nc1ccc(F)cc1` (stereo not drawn), for which the “hERG current change (%, negative = inhibition) at 10uM” value is -12.4%. As for `CCN(CC)CC#CC(OC)(c1ccccc1)c1ccccc1.Cl`, the figure is -49.2%; as for `Nc1nc(Nc2ccccc2)nc(NCCO)c1[N+](=O)[O-]`, 2.49%. As for `COc1ccc(-c2cc(C(=O)N3CCN(c4ncccn4)CC3)c3ccccc3n2)cc1OC`, the figure is -20.4%; as for `COC(=O)c1c(-c2ccccc2Cl)noc1/C=C/N(C)C`, 2.21%.

In the case of `COc1ccc(C2Nc3ccc(Br)cc3C(c3ccccc3)N2CC(=O)O)cc1` (stereo not drawn), the “hERG current change (%, negative = inhibition) at 10uM” value worked out at 18.4%. As for `CCOC(=O)C1(CCOc2ccccc2)CCN(Cc2ccc(OC)c(COC)c2)CC1`, the figure is -80.2%. The same measure for `N#C/C(=C/c1ccc(F)cc1)c1nc(CCN2C(=O)c3ccccc3C2=O)cs1`: -6.76%. The same measure for `C/C(=N\n1cnnc1)c1ccccc1`: 12.1%; for `Cc1cc(C)c2c(n1)SCC(=O)N2CC(=O)Nc1c(C)cccc1C`: 7.05%. In the case of `Cc1ccccc1/C=N/NC(=O)CSc1nc2ccccc2o1`, the “hERG current change (%, negative = inhibition) at 10uM” value is reported as 5.01%. The same measure for `O=C(NC(=S)N1CCN(Cc2ccc3c(c2)OCO3)CC1)c1ccc(Cl)cc1`: -23.6%. The same measure for `CCOC(=O)CSc1nc2ccccc2n1CC(=O)NC(C)(C)C`: -7.86%; for `CCc1n[nH]c(=O)n1Cn1c(CC)n[nH]c1=O`: 8.6%. Turning to `O=C(Nc1cccc(C(=O)Nc2cccc(Br)c2)c1)c1ccccc1`, the “hERG current change (%, negative = inhibition) at 10uM” value is on record as -4.34%.

For `O=C(c1ccco1)N1CCN(S(=O)(=O)c2ccccc2)CC1`, the “hERG current change (%, negative = inhibition) at 10uM” value was 9.44%.

Regarding `CCn1c(SCC(=O)NC(C)(C)C)nc(O)cc1=O`, the “hERG current change (%, negative = inhibition) at 10uM” value is on record as 5.5%.

For `O=C(COC(=O)CCSc1ccccc1)Nc1cc(F)ccc1F`, the “hERG current change (%, negative = inhibition) at 10uM” value is 19.7%.

As to `Cc1nn(-c2ccc(N3CCCCC3)nn2)c(C)c1CCC(=O)Nc1cccc(F)c1`, the “hERG current change (%, negative = inhibition) at 10uM” value is given as -19%. For the compound `O=C(NC1(C(F)(F)F)NC(=O)N(CCc2ccccc2)C1=O)C1CC1` (stereo not drawn), the “hERG current change (%, negative = inhibition) at 10uM” value is 1.57%. With `COC(=O)CN1C(=O)S/C(=C/c2ccc(N3CCCCC3)o2)C1=O`, the “hERG current change (%, negative = inhibition) at 10uM” value is 15.6%. As for `CCN(CC)c1ccc(N=Cc2c(O)n(Cc3ccccc3)c(=O)[nH]c2=O)cc1` [14729657], the figure is -0.768%; as for `O=[N+]([O-])c1cccc(/C=N/Nc2nc(NCc3ccccc3)nc(N3CCOCC3)n2)c1O`, 4.47%.
